Reference: ChEMBL document CHEMBL1201862, “PubChem BioAssay data set” (2004)
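Step 1: Grow cells in 96-well plates. Step 2: Expose to compound for 48 hours at 5 concentrations. Step 3: Interpolate endpoints linearly; if unreached, use highest concentration. GI50 marks 50% less growth.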 Active and inactive are the calls of the source. No stated cut-off is given here; in the data, active = GI50 up to about 1.1 µM and inactive = higher.

test system: NCI-H322M; experiment: NCI anticancer screen, dose series, 48 h

SMILES | GI50
CN(C)c1ccc(/C=C/c2ccc3ccccc3[n+]2C)cc1 | inactive: 4.73 µM
CC(CCc1nc2ccccc2s1)(c1ccc(O)cc1)c1ccc(O)cc1 | inactive: 17.7 µM
O=C1C=C(O)c2nc(O)ccc2C1=O | inactive: > 100 µM
CC[N+]1(C)CCC(O)(c2ccc(OC)cc2)C(C(=O)c2ccc(OC)cc2)C1 (stereo not drawn) | inactive: 16.7 µM
Nc1nc(N)c2c(Cl)c(CNc3ccc(Cl)c(Cl)c3)ccc2n1 | active: 0.136 µM
O=C(O)CCC1(c2ccccc2)NC(=O)NC1=O (stereo not drawn) | inactive: > 100 µM
O=C(/C=C/C(Cl)(Cl)Cl)Nc1ccc(Cl)cc1 | inactive: 17.4 µM
CCOC(=O)C(NC(=O)c1ccccc1)(Nc1ccc(S(=O)(=O)Nc2cc(C)on2)cc1)C(F)(F)F (stereo not drawn) | inactive: > 100 µM
N#Cc1c2c(c(N3CCOCC3)n3c1nc1ccccc13)CCCC2 | inactive: 17.2 µM
O=C(c1cccs1)N(C(=O)N1CCN(c2ccccc2)CC1)S(=O)(=O)c1ccccc1 | inactive: 40 µM
CC(C)(C)OC(=O)N1CCCC1C(=O)NCCNc1ccc(NCCNC(=O)C2CCCN2C(=O)OC(C)(C)C)c2c1C(=O)c1ccccc1C2=O (stereo not drawn) | inactive: 16 µM
COc1cc(-c2cc(=O)c3cc4c(=O)cc(-c5cc(OC)c(OC)c(OC)c5)oc4cc3o2)cc(OC)c1OC | inactive: 75.7 µM
COc1cc(C(=O)Nc2c3ccccc3nc3ccccc23)cc(OC)c1OC | inactive: > 100 µM
Cc1nc(C(N)=S)sc1C(=O)CC(=O)C(=O)Nc1ccc(Br)cc1 | inactive: > 100 µM
CN(C)CCCNc1ccc([N+](=O)[O-])c2nc3ccccc3c(N)c12 | active: 0.444 µM
CCOC1C=CC(=O)C(CO)O1 (stereo not drawn) | inactive: 18.3 µM
O=C(NC1C=Nc2ccc([N+](=O)[O-])cc2NC1=O)c1cc(Cl)cc([N+](=O)[O-])c1 (stereo not drawn) | inactive: > 100 µM
O=C(Cn1ccnc1[N+](=O)[O-])c1ccc(F)cc1 | inactive: > 100 µM
CC(=O)c1sc(=N)n(-c2c(C)cccc2C)c1C | inactive: > 100 µM
C[C@H](NC1=C(Cl)C(=O)c2c(O)ccc(O)c2C1=O)C(=O)Nc1ccc([N+](=O)[O-])cc1 | inactive: 3.09 µM
O/N=C1/C(=C/c2ccc(Oc3ccccc3)cc2)CCCC1C(NO)c1ccc(Oc2ccccc2)cc1 (stereo not drawn) | inactive: 95.9 µM
Fc1cc(-c2cc(-c3ccccc3)n[nH]2)c(Cl)cc1Cl | inactive: > 100 µM
c1ccc(C(NCC2CCO2)(c2ccccc2)c2ccccc2)cc1 (stereo not drawn) | inactive: 16.1 µM

SMILES | GI50
COc1ccc(C#CC(=O)O)c(OC)c1 | inactive: > 100 µM
N/N=C(\CCN1CCCC1)CC(c1ccccc1)c1c(O)c2ccccc2oc1=O (stereo not drawn) | inactive: > 100 µM
Nc1nc(NNc2ccc(Cl)c(Cl)c2)cc(=O)[nH]1 | inactive: 56.9 µM
N=c1oc2c(Cl)cc(Cl)cc2cc1C(=O)Nc1ccccn1 | inactive: > 100 µM
CC(C(=O)[O-])S(=O)(=O)O.CCc1c2cc(OC)c(OC)cc2cc2c3cc(OC)c(OC)cc3cc[n+]12 | inactive: 28.6 µM
CC1CNc2ccccc2N=C1NN (stereo not drawn) | inactive: > 100 µM
COc1cc2c(cc1OCc1ccccc1)CNCC2 | inactive: > 100 µM
COc1c(-c2ccc(O)c(O)c2)oc2c(O)c(O)cc(O)c2c1=O | inactive: > 100 µM
O=C1c2ccccc2CN1c1ccc(OCCN2CCCCC2)cc1 | inactive: > 10 µM
C=C(C)C(=O)OC1C(C(C)CCCO)=C(CO)CC2OC(=O)C(=C)C21 (stereo not drawn) | inactive: 19.5 µM
COC1CC(n2cc(F)c(N)nc2=O)OC1CO (stereo not drawn) | inactive: > 100 µM
O=S(=O)(O)c1cc(S(=O)(=O)O)c2cc(/N=N/c3c(O)ccc4ccccc34)ccc2c1 | inactive: > 100 µM
COc1cc2nc3n(c(=O)c2cc1OC)-c1ccc([N+](=O)[O-])cc1C3=O | inactive: > 100 µM
O=c1c2c3c(sc2nc2n1N=CN(c1ccc(Cl)cc1)C2)CCCC3 | inactive: 94 µM
COc1cccc2c1OC(c1ccc(Cl)cc1)C([N+](=O)[O-])=C2 (stereo not drawn) | inactive: 4.85 µM
O=NN1CCNC1Cc1ccccc1 (stereo not drawn) | inactive: > 100 µM
CC1=C[P+](c2ccccc2)(c2ccccc2)c2ccccc2O1 | inactive: 22.9 µM
Cc1ccccc1CN1CC=c2ccccc2=N1 | inactive: > 100 µM
Cc1cccc2ns[s+]c12 | inactive: > 100 µM
O=C(CCCN1CCC2(CC1)OC(=O)N(c1ccccc1)C2=O)c1ccccc1 | inactive: > 100 µM
O=C1OI(C#Cc2ccccc2)c2ccccc21 | inactive: 10.3 µM
Nc1nc(N)nc(-c2cnc3ccccc3c2)n1 | inactive: > 100 µM
COc1cc(/C=C/C(=O)OC2C(O)C3CC(OC(=O)c4cc(OC)c(OC)c(OC)c4)CC2N3C)cc(OC)c1OC (stereo not drawn) | inactive: > 50 µM

SMILES | GI50
CSCSCC(N)CO.Cc1[nH]c(=O)[nH]c(=O)c1/C=C/C(=O)O | inactive: > 625 µM
C(=N\c1cc2cc(Sc3ccccc3)ccc2[nH]1)/c1ccccc1 | inactive: > 12.5 µM
COC(=O)C1OC(Oc2cc(O)c3c(=O)cc(-c4ccc(O)cc4)oc3c2)C(O)C(O)C1O (stereo not drawn) | inactive: > 100 µM
CC12OC3(C(O)C1O)C(C(=O)O[C@H]3CO[Si](C)(C)C(C)(C)C)C2S(=O)(=O)c1ccccc1 (stereo partly drawn) | inactive: 79.8 µM
Cc1cc(C)nc(NS(=O)(=O)c2ccc(NC(=O)c3ccc(Cl)c4c(Nc5ccc(S(=O)(=O)N=C(N)N)cc5)c5ccccc5nc34)cc2)n1 | inactive: 27.9 µM
O=C1c2ccccc2C(=O)c2[nH]c(=O)c(/C=N/Nc3ccc([N+](=O)[O-])cc3)nc21 | inactive: 1.72 µM
CC[C@@H]1CC[C@@H]2[C@H](CC[C@]3(C)[C@@H](OC(C)=O)CC[C@@H]23)[C@H]1COC(C)=O | inactive: 47.1 µM
c1csc(-c2ccc(-c3cccs3)c3nsnc23)c1 | inactive: > 70.3 µM
COc1ccc(/C(Cl)=C(\C#N)c2ccc(OC)c(OC)c2)cc1OC | inactive: > 100 µM
CN(C)CCCC12CCCCC1=Nc1ccccc12 (stereo not drawn) | inactive: > 100 µM
CCCC(=O)NC(Nc1cc(C)ccn1)(C(=O)OCC)C(F)(F)F (stereo not drawn) | inactive: > 100 µM
Nc1ncnc2c1ncn2C1OC(C(=O)OCCO)C(O)C1O (stereo not drawn) | inactive: > 100 µM
OC(c1ccoc1)c1cc2ccccc2s1 (stereo not drawn) | inactive: > 10 µM
O=C(O)NC(c1ccccc1)C(NC(=O)c1ccccc1)c1ccccc1 (stereo not drawn) | inactive: > 100 µM
COc1cc(/C=N/n2c(Cc3ccc(Cl)cc3)n[nH]c2=O)cc(OC)c1OC | inactive: > 100 µM
C#C[C@]1(O)CC[C@H]2[C@@H]3CCC4=C/C(=N/NC(=O)c5cccc6cc7ccccc7nc56)CC[C@@H]4[C@H]3CC[C@@]21CC | inactive: > 100 µM
O=c1c2cccnc2[nH]c2ccc3cn[nH]c3c12 | inactive: 6.43 µM
O=S(=O)(O)c1cc(O)c2c(O)c(/N=N/c3cccc4ccccc34)c(S(=O)(=O)O)cc2c1 | inactive: > 100 µM
NCCCN(CCCCN(CCCN)C(=O)OCc1ccccc1)C(=O)OCc1ccccc1 | inactive: > 100 µM
Cc1cc(S(=O)(=O)NC2=NCCCN2)c(S)cc1Cl | inactive: 62.1 µM
COc1cc(OCCN(C)C)c2[nH]c(C(=O)N3CC(CCl)c4ccc(N)cc43)cc2c1 (stereo not drawn) | active: 0.0822 µM
COc1ccc(-c2cc(=O)c3c(O)cc(O)cc3o2)cc1OC | inactive: > 100 µM
